Data on 98 variants can be found in a collection of fitness landscapes (doi:10.1016/j.celrep.2020.107928).

B1: Caulobacter ParB omega fusion; a variant is named by its letters at X, in order, B8GW30 (parent)
chain: MESVVVGEPGMSEGRRGLGRGLSALLGEVDAAPAQAPGEQLGGSREAPIEILQRNPDQPRRTFREEDLEDLSNSIREKGVLQPILVRPSPDTAGEYQIVAGERAWRAAQRAGLKTVPIMVRELDDLAVLEIGIIENVQRADLNVLEEALSYKVLMEKFERTQENIAQTIGKSXSHVANXMRLLXLPDEVQSYLVSGELTAXHARAIAAAADPVALAKQIIEGGLSVRETEALARKAPNLSAGKSKGGRPPRVKDTDTQALESDLSSVLGLDVSIDHRGSTGTLTITYATLEQLDDLCNRLTRGI

Over roughly 81,000 sequences, “one-hybrid fitness for binding NBS DNA” has its median near -0.1; the highest 2% begin near 0.36. This is one part of the list. Bounds are passed on as bounds.

The variants in the assay derive from B1. The assay can be described thus: one-hybrid fitness for binding NBS DNA (the Noc-binding site; scaled: cognate 1, non-cognate 0); higher = stronger binding. The settings on record: with NBS DNA site. The essentials:
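In E. coli USO, a HIS3 reporter with its site placed 19 bp from the promoter was used to select Caulobacter ParB variants randomised at four specificity codons. Growth lasted 48 hours at 37°C on histidine-free M9 containing 0.1 mM IPTG and 5 mM 3-AT. Fitness was taken as the log change in variant-to-wild-type read ratio from Illumina sequencing of pre- and post-selection plasmids, rescaled between the non-cognate and cognate sites.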
Turning to DDLG, the “one-hybrid fitness for binding NBS DNA” value was at most 0.2. Regarding AERG, the “one-hybrid fitness for binding NBS DNA” value is at most 0.2. In the case of MRYS, the “one-hybrid fitness for binding NBS DNA” value was at most 0.2. With SHGY, the “one-hybrid fitness for binding NBS DNA” value is at most 0.2. As for VHNR, the figure is at most 0.2; as for TIRE, at most 0.2. As for NLDM, the figure is at most 0.2; as for HQQC, at most 0.2; as for MAFF, at most 0.2.

For the variant TTWF, the “one-hybrid fitness for binding NBS DNA” value is at most 0.2. In the case of RMCG, the “one-hybrid fitness for binding NBS DNA” value is at most 0.2. With AVMT, the “one-hybrid fitness for binding NBS DNA” value is at most 0.2. As for DYSI, the figure is at most 0.2; as for ITHA, at most 0.2.

As to KTQR, the “one-hybrid fitness for binding NBS DNA” value is at most 0.2. As for RPEF, the figure is at most 0.2.

With GIWG, the “one-hybrid fitness for binding NBS DNA” value is at most 0.2. In the case of THET it was at most 0.2; in that of LHLN, at most 0.2. As for SQQD, the figure is at most 0.2; as for LSGR, at most 0.2; as for YNKM, at most 0.2.

On to CRDD, for which the “one-hybrid fitness for binding NBS DNA” value was at most 0.2. Consider RVME, for which the “one-hybrid fitness for binding NBS DNA” value is at most 0.2.

In the case of GNGC, the “one-hybrid fitness for binding NBS DNA” value was at most 0.2. In the case of TVFN it was at most 0.2. On to TQMF, for which the “one-hybrid fitness for binding NBS DNA” value is at most 0.2. Regarding LAFV, the “one-hybrid fitness for binding NBS DNA” value was at most 0.2. On to KDGG, for which the “one-hybrid fitness for binding NBS DNA” value is at most 0.2. In the case of HPKM it was at most 0.2; in that of MISS, at most 0.2; in that of QTVS, 0.406. As for FHRI, the figure is at most 0.2; as for LGTC, at most 0.2. As for SFFA, the figure is at most 0.2; as for VSNR, at most 0.2. Consider FAPS, for which the “one-hybrid fitness for binding NBS DNA” value is at most 0.2. Regarding LLRM, the “one-hybrid fitness for binding NBS DNA” value is at most 0.2.

On to LHHN, for which the “one-hybrid fitness for binding NBS DNA” value is at most 0.2.

As for KSIS, the “one-hybrid fitness for binding NBS DNA” value was at most 0.2.

ADVS: the “one-hybrid fitness for binding NBS DNA” value is at most 0.2.

With QIAV, the “one-hybrid fitness for binding NBS DNA” value is at most 0.2. As for RLAF, the figure is at most 0.2; as for PELM, at most 0.2; as for TGSH, at most 0.2. As for LDNR, the figure is at most 0.2. In the case of NVVT it was at most 0.2. As for LAHD, the “one-hybrid fitness for binding NBS DNA” value is at most 0.2. In the case of QGQT it was at most 0.2. In the case of NKMC it was at most 0.2; in that of EMNC, at most 0.2.

For the variant YPYT, the “one-hybrid fitness for binding NBS DNA” value is at most 0.2.

MAVI: the “one-hybrid fitness for binding NBS DNA” value was at most 0.2. As for WRTV, the figure is at most 0.2; as for EFRV, at most 0.2; as for SRWL, at most 0.2.

With SQEG, the “one-hybrid fitness for binding NBS DNA” value is at most 0.2.

Regarding IGHR, the “one-hybrid fitness for binding NBS DNA” value was at most 0.2. For the variant THKR, the “one-hybrid fitness for binding NBS DNA” value stood at 0.322.

For the variant VELT, the “one-hybrid fitness for binding NBS DNA” value was at most 0.2.

For the variant VNKC, the “one-hybrid fitness for binding NBS DNA” value is at most 0.2. As for TLML, the “one-hybrid fitness for binding NBS DNA” value was at most 0.2. Consider CPAL, for which the “one-hybrid fitness for binding NBS DNA” value was at most 0.2. As to NAPC, the “one-hybrid fitness for binding NBS DNA” value is at most 0.2. In the case of CPVD it was at most 0.2. As for CQKG, the figure is at most 0.2.

LKNE: the “one-hybrid fitness for binding NBS DNA” value is at most 0.2. In the case of HNFL it was at most 0.2. In the case of TAPQ it was at most 0.2; in that of FMSC, at most 0.2.

For MCNV, the “one-hybrid fitness for binding NBS DNA” value is at most 0.2. In the case of WAMC it was at most 0.2; in that of SFDS, at most 0.2; in that of RVIN, at most 0.2.

KYGT: the “one-hybrid fitness for binding NBS DNA” value is at most 0.2. As for LDDA, the “one-hybrid fitness for binding NBS DNA” value is at most 0.2. In the case of LGAL it was at most 0.2. Take IAQI: the “one-hybrid fitness for binding NBS DNA” value is at most 0.2. As for QYAR, the “one-hybrid fitness for binding NBS DNA” value was 0.517. As for RDAK, the figure is at most 0.2; as for GTHG, at most 0.2; as for ALNI, at most 0.2. In the case of ESMM it was at most 0.2; in that of VTCF, at most 0.2. With YGPE, the “one-hybrid fitness for binding NBS DNA” value is at most 0.2.

Regarding QANR, the “one-hybrid fitness for binding NBS DNA” value turned out to be 0.583. As for CFRE, the figure is at most 0.2; as for WALV, at most 0.2; as for PLGD, at most 0.2. In the case of MPKW it was at most 0.2. For the variant RTHM, the “one-hybrid fitness for binding NBS DNA” value is at most 0.2. As for RRYP, the figure is at most 0.2; as for PSVH, at most 0.2; as for YMKS, at most 0.2. Regarding DRRV, the “one-hybrid fitness for binding NBS DNA” value is at most 0.2.

With ATYT, the “one-hybrid fitness for binding NBS DNA” value was at most 0.2.

EVCT: the “one-hybrid fitness for binding NBS DNA” value was at most 0.2. Consider GTNG, for which the “one-hybrid fitness for binding NBS DNA” value is at most 0.2.
